The values below come from US20210253718A1, “FRIZZLED5 PROTEIN-BINDING AGENTS” (Modmab Therapeutics Corporation, priority 2016, published 2021).

One series has as its target T1, FZD8-Fc (Homo sapiens, UniProt Q9H461).
T1 construct: segment consists of an extracellular portion of Frizzled which includes the CRD; Fc (C)
T1 sequence (Q9H461 30-151 limits assumed): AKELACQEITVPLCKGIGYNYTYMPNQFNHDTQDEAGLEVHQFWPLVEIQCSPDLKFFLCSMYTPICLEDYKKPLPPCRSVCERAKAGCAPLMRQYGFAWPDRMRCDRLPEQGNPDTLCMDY
Kind of series: Surface plasmon resonance analysis of IgG binding to Frizzled-Fc chimera. The following applies: SPR. On the technique in general: In SPR one partner is held on a chip, and binding of the other changes the refractive index at the surface.

Another series has as its system HPAF-II xenograft tumors. Kind of series: Histological staining (Alcian Blue) of HPAF-II xenograft tumors. The class given is in vivo, mouse. The following applies: tumors at end of treatment. How it is done: Histological staining: Tumor staining was carried out at the immuno-histopathology and tissue processing lab at the University Health Network. […] An Axio Scan slide scanner system was used to generate high resolution digital images of the whole tumor sections at 40× in brightfield mode, and the images were exported as .png files using ZEN software.

Another series has as its target T2, FZD5-Fc (Homo sapiens, UniProt Q13467).
T2 construct: The FZD5 portion of FZD5-Fc consists of the extracellular Ala27-Pro167 segment of FZD5; Fc (C); purchased R&D Systems 1617-FZ
T2 sequence (Q13467 27-167): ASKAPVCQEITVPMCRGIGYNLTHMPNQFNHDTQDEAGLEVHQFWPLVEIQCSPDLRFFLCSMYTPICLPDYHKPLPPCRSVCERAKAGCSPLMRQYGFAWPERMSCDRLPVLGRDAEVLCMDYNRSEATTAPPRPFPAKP
Nature of the series: Surface plasmon resonance analysis of IgG binding to Frizzled-Fc chimera. The following applies: SPR.

A further series relates to HPAF-II mouse xenografts. Kind of series: Subcutaneous HPAF-II xenograft mouse model. The series is classed as in vivo. The note with it: for tumor growth inhibition: intraperitoneal, vs human γ globulin. On the procedure:
Mouse xenograft studies: CB-17 Fox Chase SCID mice (6 weeks old, female) were purchased from Charles River Laboratories (St. Constant, QC, Canada). The mice were housed in a pathogen-free environment at the animal facility at the University of Toronto. The study was conducted according to the guidelines of the Canadian Council on Animal Care (CCAC) and the animal use protocols approved by the University Animal Care Committee (UACC) at the University of Toronto. The recombinant antibody, IgG-2919, was developed and purified as described above. Human γ globulin was purchased from Jackson ImmunoResearch Laboratories, Inc. (West Grove, Pa., USA), and Dulbecco's phosphate-buffered saline (DPBS, no calcium, no magnesium) was obtained from Thermo Fisher Scientific Inc. (Burlington, ON, Canada). Human γ globulin and D-PBS were used as the experimental controls in this study. HPAF-II cells were inoculated subcutaneously into the flank of the CB-17 SCID mice with 3×10^6 cells in D-PBS per mouse. Tumor volumes were measured using vernier calipers and the mice were weighed twice weekly. Tumor volume was calculated using the formula: ½ (Length×Width^2). When tumors reached approximately 200 mm^3, the mice were randomized into four groups of nine or ten mice each. […] For calculation of percentage of tumor growth inhibition (TGI), groups treated with antibody (Ab test) were compared with group treated with human γ globulin (control). TGI (%) was calculated using the formula: TGI (%)={(mean TVGcontrol−mean TVGAb test)/mean TVGcontrol}×100, where the mean TVG (tumor volume growth)=mean tumor volume at a defined study day−mean tumor volume the day of the first dosing. Statistical significance was examined by Student's t-test (two-tailed). P-values less than 0.05 were considered statistically significant.
On the technique in general: In xenograft studies the graft and the host belong to different species.

Series [1] concerns Wnt-beta-catenin target genes AXIN2 and NKD1. Kind of series: RT-qPCR of Wnt-beta-catenin target genes after anti-FZD5 IgG treatment of HPAF-II. The series is classed as cell-based, human. The note with it: 300 nM IgG. On the procedure:
Reverse transcription and quantitative real-time PCR: After indicated treatments, cells were lysed in Tri-reagent (BioShop Canada #TSS120) and RNA extracted using the manufacturer's protocol. RNA concentration was quantified with Nanodrop1000 (Thermo Scientific) and 2 micrograms of RNA per sample was DNase I treated (ThermoFisher #AM2222). DNase treated RNA was used to make cDNA with High-Capacity cDNA Reverse Transcription Kit (ThermoFisher #4368813). Real-time PCR was performed using Power SYBR Green Master Mix on the 7900HT Fast Real-Time PCR system. Primer pairs are listed below. Analysis was done using the comparative cycle threshold (CT) method (Bookout et al., 2006) with all samples normalized to PPIB (cyclophilin B) expression.
For orientation: In qPCR the cycle at which signal appears reflects the starting amount.

B1: IgG-2919: anti-FZD5 IgG incorporating antibody variable region Fv-2919; light chain SEQ ID NO: 338, heavy chain SEQ ID NO: 340 (antibody)
heavy: EVQLVESGGGLVQPGGSLRLSCAASGFNISYSYIHWVRQAPGKGLEWVASIYSSSGSTSYADSVKGRFTISADTSKNTAYLQMNSLRAEDTAVYYCARGAIDYWGQGTLVTVSS[omitted - human IgG1 constant region]
light: DIQMTQSPSSLSASVGDRVTITCRASQSVSSAVAWYQQKPGKAPKLLIYSASSLYSGVPSRFSGSRSGTDFTLTISSLQPEDFATYYCQQWYSSGHVLITFGQGTKVEIKRTVAAPSVFIFPPSDEQLKSGTASVVCLLNNFYPREAKVQWKVDNALQSGNSQESVTEQDSKDSTYSLSSTLTLSKADYEKHKVYACEVTHQGLSSPVTKSFNRGEC
For the molecule B1, the “affinity (KD), in words” value in the series with FZD8-Fc (FZD8) and with FZD5-Fc (FZD5) was “sub-nanomolar affinity” in each case. In addition, the “Ka (association constant)” value is 533000 M⁻¹ s⁻¹ in the series with FZD8-Fc (FZD8-Fc) and 416000 M⁻¹ s⁻¹ with FZD5-Fc (FZD5-Fc). For the same molecule, the “Kd (dissociation constant)” value in the series with FZD8-Fc (FZD8-Fc) is 2.28e-05 s⁻¹; with FZD5-Fc (FZD5-Fc) it was 8.06e-05 s⁻¹. In addition, the “mucin production (Alcian Blue staining)” value in the series on HPAF-II xenograft tumors is “increased mucin production”. Further, in the series with HPAF-II mouse xenografts (1 mg/kg or 2 mg/kg twice weekly), the signs of toxicity result was “no signs of toxicity”. For the same molecule, the results for the tumor growth inhibition in the series with HPAF-II mouse xenografts (1 mg/kg twice weekly) and with HPAF-II mouse xenografts (2 mg/kg twice weekly) were 46% and 73%, respectively. The “mouse body weights over course of treatment” value with HPAF-II mouse xenografts (HPAF-II xenograft mice) was “stable”. Also, the “expression of AXIN2” value in series [1] was “suppresses expression”. The “expression of NKD1” value in series [1] is recorded as “suppresses expression”.
